# Data: PubChem BioAssay AID624417 (National Center for Advancing Translational Sciences (NCATS), 2012)
# Out of some 410,000 compounds screened, about 6,400 (1.6%) were called active. Inconclusive means that the source gave no clear call. Such entries were picked first, then a sample of the others. Calls come from the whole dose curve; as a rule, active = well fitted inhibition curve with a large enough effect; inconclusive = small, poorly fitted or top-dose-only effect; inactive = no such curve, though single readings can be large or run the other way. No potency is given beside an inconclusive call; the fits are too rough.
# Target: Glucagon-like peptide 1 receptor (Homo sapiens) (UniProt P43220)
# Experiment: qHTS of GLP-1 Receptor Inverse Agonists (Inhibition Mode); note: nearly all actives have a fitted effect of over 55% in size
# Settings: HEK293 GLP-1R CRE-luciferase, luminescence, 24 h, GLP-1R form is constitutively active; activity change, negative = inhibition: at 38.3 µM (top of the series) unless noted
# Procedure, shortened: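 qHTS in 1536-well format: reporter HEK293 cells expressing constitutive GLP-1R activity in DMEM + 10% Nu serum, 24 hr with compounds at 37 deg C, luminescence read after 12 min with detection reagent.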
# % is set by controls: 0 for no effect and ±100 for the full control effect; potency is the fitted concentration of half-maximal effect; tags give direction and shape of the fitted curve.
# UniProt P43220, sequence (P43220 whole entry, looked up): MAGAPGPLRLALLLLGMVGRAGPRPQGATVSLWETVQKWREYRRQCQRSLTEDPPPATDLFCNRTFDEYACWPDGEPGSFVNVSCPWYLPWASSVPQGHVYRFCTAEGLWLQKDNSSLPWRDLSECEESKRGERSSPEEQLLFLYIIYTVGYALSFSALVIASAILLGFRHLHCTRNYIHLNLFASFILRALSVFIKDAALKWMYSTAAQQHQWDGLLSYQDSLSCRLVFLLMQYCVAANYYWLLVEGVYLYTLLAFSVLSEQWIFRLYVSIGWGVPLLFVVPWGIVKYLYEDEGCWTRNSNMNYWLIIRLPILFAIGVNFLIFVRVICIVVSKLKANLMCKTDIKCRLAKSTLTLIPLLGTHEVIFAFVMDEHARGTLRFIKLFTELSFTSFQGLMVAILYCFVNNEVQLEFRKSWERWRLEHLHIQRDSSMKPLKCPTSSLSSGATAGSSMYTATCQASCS
Compound,Potency,"activity change, negative = inhibition"
CCOP(=O)(c1ccccc1)c1nc(-c2ccccc2Cl)oc1N1CCCCC1 (stereo unspecified),"inconclusive [inhibitor, single point]",–
COC1CCN(Cc2cn(Cc3ccccc3)nc2-c2cc3ccccc3o2)CC1,"inconclusive [inhibitor, partial curve, poor fit]",–
Cc1cccc(CN2C(=O)NC(c3ccccc3)(c3ccccc3)C2=O)c1,"inconclusive [inhibitor, full curve, poor fit]",–
CC(=O)C1=C(C)OC(N)=C(C#N)C1c1cccc([N+](=O)[O-])c1 (stereo unspecified),"inconclusive [inhibitor, single point]",–
COc1ccc(CNC(=O)c2ccc(NC(=O)N3CCCCc4ccccc43)cc2)c(OC)c1,active: 11.2 µM,–
O=C1c2ccccc2C(O)(c2ccccc2)N1c1ccc([N+](=O)[O-])cc1Cl (stereo unspecified),"inconclusive [inhibitor, single point]",–
COc1ccc(/C(=C/Nc2cccc(Br)c2)C(C)=O)cc1OC,"inconclusive [inhibitor, single point]",–
COc1ccc(CCNc2oc(COc3ccc(F)cc3)nc2C#N)cc1,"inconclusive [inhibitor, single point]",–
COC(=O)N(NC(=O)C(O)(c1ccccc1)c1ccccc1)c1ccc(C)cc1,"inconclusive [inhibitor, single point]",–
Cc1c(Cl)cccc1NC(=S)NCC(O)c1ccccc1 (stereo unspecified),"inconclusive [inhibitor, single point]",–
O=C(Nc1nc2ccccc2n1CCN1CCCCC1)C1CCCCC1,"inconclusive [inhibitor, partial curve, poor fit]",–
CCOc1ccc(NC(=S)N2CCCN(Cc3cc(C)ccc3C)C2)cc1,"inconclusive [inhibitor, partial curve, poor fit]",–
CCOC(=O)COc1nc(-c2ccccc2)cc(-c2ccco2)c1C#N,"inconclusive [inhibitor, single point]",–
O=C(Nc1cccc(C(=O)N2CCCC2)c1)C1CCCC1,–,inactive: 12.6%
CC1CCc2[nH]c3ccc(C(=O)NCC4CCCO4)cc3c2C1 (stereo unspecified),"inconclusive [inhibitor, partial curve, poor fit]",–
CCOc1cccc(OCCOCCN(C)Cc2ccccc2)c1,"inconclusive [inhibitor, partial curve]",–
O=C1CCCc2ccccc2N1Cc1c(Cl)cccc1Cl,"inconclusive [inhibitor, partial curve, poor fit]",–
C#CCSc1nnc(-c2ccc(OC)cc2)o1,"inconclusive [inhibitor, single point]",–
CC(C)CNC(=O)c1cccc(NC(=O)Cc2ccc(Br)cc2)c1,"inconclusive [inhibitor, partial curve, poor fit]",–
C=C(C)c1cccc(C(C)(C)NC(=O)Nc2ccc(C(C)=O)cc2)c1,"inconclusive [inhibitor, partial curve, poor fit]",–
CC1CCCCN1C(=O)c1ccc(C(=O)c2ccccc2)cc1 (stereo unspecified),"inconclusive [inhibitor, single point]",–

Compound,Potency,"activity change, negative = inhibition"
COc1ccc(Cl)cc1CC1(C)C(=O)Nc2ccc(-c3ccccc3OC)cc21 (stereo unspecified),"inconclusive [inhibitor, single point]",–
COc1ccc2cc(C(=O)C3CCCN(C(=O)c4ccnn4C)C3)ccc2c1 (stereo unspecified),"inconclusive [inhibitor, single point]",–
CCCCn1c(N)c(N(CCOC)C(=O)CCCn2c(=O)oc3ccccc32)c(=O)[nH]c1=O,–,inactive: 4.26%
FC(F)(F)c1cnc(N2CCN(C(=S)NCc3ccccc3)CC2)c(Cl)c1,"inconclusive [inhibitor, partial curve, poor fit]",–
CCC(=O)Nc1sc2c(c1C(N)=O)CCN(C(C)=O)C2,–,inactive: 4.73%
COc1ccc(NC(=S)Nc2ccccn2)cc1,"inconclusive [inhibitor, single point]",–
CCCCCCC(=O)N1C/C=C\C(c2ccc(OC)cc2)N(Cc2ccc(F)cc2)C(=O)C1 (stereo unspecified),"inconclusive [inhibitor, single point]",–
Cc1nn(-c2cc(C(F)(F)F)ccc2Cl)c2nc(C(Cl)(Cl)Cl)[nH]c(=O)c12,"inconclusive [inhibitor, single point]",–
CCC(=O)Nc1c(C#N)c2nc3ccccc3nc2n1-c1ccccc1C,–,inactive: 2.89%
Cc1ccc(-n2nc(-c3cccs3)cc2C(=O)NCC2CCCO2)c(C)c1 (stereo unspecified),"inconclusive [inhibitor, single point]",–
O=C(COc1ccccc1)NCC(=O)N/N=C/c1cc(Br)ccc1OCc1ccccc1,"inconclusive [inhibitor, single point]",–
O=[N+]([O-])c1cccnc1Oc1ccc(C2SCCS2)cc1,"inconclusive [inhibitor, single point]",–
N#C/C(=C(/O)Cc1cccc2ccccc12)c1nc2ccccc2s1,–,inactive: -21.5%
Cc1ccc(C)c(OCCCC(=O)NC2CCCCC2)c1,"inconclusive [inhibitor, single point]",–
CCCCCC(=O)NC(=S)NC1C2CC3CC(C2)CC1C3 (stereo unspecified),"inconclusive [inhibitor, single point]",–
O=C1/C(=C/c2ccco2)N=C(N2CCCCC2)N1c1ccccc1,"inconclusive [inhibitor, partial curve, poor fit]",–
Cc1ccc(C)c(Nc2nn3c(=O)c4ccc(C(=O)N(C)Cc5ccccc5)cc4nc3s2)c1,–,inactive: -30%
C=CCN(C(=O)c1ccccc1)c1ccc(OC)cc1,"inconclusive [inhibitor, single point]",–
COc1ccc(NC(=O)CC2C(=O)N(Cc3cccs3)C(=S)N2C(C)C)cc1 (stereo unspecified),"inconclusive [inhibitor, single point]",–
COc1ccccc1C1CC(c2c(-c3ccccc3)c3cc(Cl)ccc3[nH]c2=O)=NN1S(C)(=O)=O (stereo unspecified),active: 10 µM,–
